Results from PubChem BioAssay AID651820 (National Center for Advancing Translational Sciences (NCATS), 2012).
Among all 340,000 compounds or so, about 12,000 (3.5%) were called active. Inconclusive results, whose numbers are uncertain, are shown with a selection of clear calls. The call rests on the fitted dose curve; in most records, active means well fitted inhibition curve with a large enough effect; inconclusive means small, poorly fitted or top-dose-only effect, or another doubt; inactive means no such curve, though single readings can be large or run the other way. No potency is given beside an inconclusive call; the fits are too rough.
On the % scale 0 is the no-effect control and ±100 the full control effect; potency means the concentration at half of the fitted maximal effect; tags describe the fitted curve by direction and shape.

Assay: qHTS Assay for Inhibitors of Hepatitis C Virus (HCV)
Settings: Huh7.5.1 HCVcc-Cre (HCVcc is cell-culture hepatitis C virus) infection, luciferase reporter, 44 h; activity change, negative = inhibition: at 41.8 µM (top of the series)
Outline: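 Compounds are dispensed onto cells plated 4 h earlier at 1,000 per well, with HCVcc-Cre virus (about 0.5 moi) added next. Following 44 h of culture, luminescent signal is measured for 15 sec after 15 min with substrate at room temperature.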
With `S=c1[nH]nc(-c2cccs2)n1/N=C/c1cccs1` the Potency was inconclusive [inhibitor, single point]. For `Cc1nn(Cc2ccccc2Cl)c(Cl)c1C(=O)OCC(=O)NCc1ccco1`, the Potency was inconclusive [inhibitor, full curve]. For `O=C(Nc1ncccc1O)c1cccc(S(=O)(=O)N2CCc3ccccc32)c1`, the Potency was “inactive”. For `O=C(COc1ccc(Cl)cc1)N/N=C/CCc1ccccc1`, the Potency was “inactive”. For `O=C(N/N=C/c1cccs1)c1cc(C2CC2)nc2ccccc12`, the Potency was inconclusive [inhibitor, partial curve]. For `C/C(=N\NC(=O)C12CCC(C)(C(=O)O1)C2(C)C)c1ccccc1O` (configuration not stated), the Potency was inconclusive [inhibitor, single point]. For `COc1cc(N)c(Cl)cc1C(=O)OCC(=O)NCC1CCCCC1`, the Potency was active: 10 µM. With `Cc1ccc(CCNC(=O)C2CCN(S(=O)(=O)c3ccc4c(c3)NC(=O)C(C)S4)CC2)cc1` (configuration not stated) the Potency was active: 6.31 µM. In the case of `CC(C)c1cc(=O)n2c(nc3ccccc32)[nH]1`, the Potency is reported as “inactive”. In the case of `C=C(C)COc1ccc(-c2n[nH]c(C)c2-c2ccc(OC)cc2)c(O)c1`, the Potency is reported as inconclusive [inhibitor, single point]. With `CCn1cc(C=C2C(=O)NC(=O)NC2=O)c2ccccc21` the Potency was inconclusive [inhibitor, partial curve]. With `CC1CN(C(=O)Nc2ccc3c(c2)OCCO3)CC(C)O1` (configuration not stated) the Potency was inconclusive [inhibitor, single point]. For `Cc1ccc(S(=O)(=O)N(C)c2ccc3sc(C)nc3c2)cc1`, the Potency was inconclusive [inhibitor, single point]. For `O=C(O)c1ccc2c(c1)N(Cc1cccc(F)c1)C(=O)CS2`, the Potency was “inactive”. In the case of `COc1ccc(N2CCN(S(=O)(=O)c3cc(-c4cc(C)no4)ccc3C(C)C)CC2)cc1`, the Potency is reported as inconclusive [inhibitor, single point]. For `Cc1c(C(=O)NC(C)CCc2ccccc2)cccc1[N+](=O)[O-]` (configuration not stated), the Potency was “inactive”. In the case of `CCSc1nc2sc3c(c2c(=O)n1CC)CCC3`, the Potency is reported as inconclusive [inhibitor, single point]. For `CC(C)CN(C(=O)COC(=O)c1ccc2ccccc2n1)C1CCS(=O)(=O)C1` (configuration not stated), the Potency was “inactive”. With `CCc1ccc(S(=O)(=O)N/N=C\c2ccc3c(c2)OCO3)cc1` the Potency was inconclusive [inhibitor, single point]. With `CC(=O)Nc1ccc(Nc2c3c4c(cccc4n(C)c2=O)C(=O)c2ccccc2-3)cc1` the Potency was inconclusive [inhibitor, partial curve]. With `Cc1ccc(S(=O)(=O)N2C[C@@H]3CCCC[C@@H]3[C@@H](C)[C@H]2c2cn(Cc3ccccc3)c3ncccc23)cc1` the Potency was inconclusive [inhibitor, single point]. For `CCSc1ccc([C@@H]2[C@@H]3C(=O)N(CC)C(=O)[C@@H]3[C@]3(C(=O)OC)CCCCN23)cc1`, the Potency was active: 0.708 µM. For `CC(=O)N/C(=C\c1ccccc1)C(=O)OCCCOC(=O)/C(=C/c1ccccc1)NC(C)=O`, the Potency was “inactive”. For `COc1ccc(F)cc1S(=O)(=O)NCC(c1ccc2c(c1)OCO2)N1CCN(C)CC1` (configuration not stated), the Potency was inconclusive [inhibitor, single point]. In the case of `O=C(NCC1COc2ccccc2O1)c1ccc(NC(=O)C(c2ccccc2)c2ccccc2)cc1` (configuration not stated), the Potency is reported as inconclusive [inhibitor, partial curve]. In the case of `Nc1sc(-c2ccccc2)n[n+]1Cc1cccc2cccnc12`, the Potency is reported as inconclusive [inhibitor, single point]. In the case of `O=C(NNC1=C(C(=O)C(F)(F)F)CCC1)c1ccc(Cl)cc1`, the Potency is reported as “inactive”. In the case of `COc1ccc2c(c1)/C(=C/c1cc(OC)c(OC)c(OC)c1)C(=O)N2`, the Potency is reported as inconclusive [inhibitor, full curve]. In the case of `C[N+]1(CCC(=O)c2ccccc2)CCCCC1`, the Potency is reported as “inactive”. With `CCOc1ccccc1N1CCN(C(=O)c2c(-c3c(F)cccc3Cl)noc2C)CC1` the Potency was inconclusive [inhibitor, single point]. In the case of `CCNc1nc(OCC)nc(N2CCC(Cc3ccccc3)CC2)n1`, the Potency is reported as “inactive”. In the case of `CCOc1cc(/C=N/NC(N)=O)cc(Br)c1OCC(=O)Nc1cccc2ccccc12`, the Potency is reported as active: 17.8 µM. For `COc1ccccc1CCC(=O)Nc1cc(S(=O)(=O)N2CCOCC2)ccc1N1CCCC1`, the activity change, negative = inhibition was inconclusive: -31.5% [inhibitor]. For `O=C(Cn1c(=S)[nH]c2ccccc2c1=O)N1CCC2(CC1)OCCO2`, the Potency was “inactive”. With `COc1ccc(Cl)cc1NC(=O)C1CCCN(c2cc(C)nc3ncnn23)C1` (configuration not stated) the Potency was inconclusive [inhibitor, single point]. For `CC(C)(C)c1ccc(-c2nc(-c3ccncc3)no2)cc1`, the Potency was “inactive”. With `COCCCNc1ccc([N+](=O)[O-])cc1C(=O)Nc1cccc(C)n1` the Potency was inconclusive [inhibitor, single point]. For `Cc1ccc(C(=O)Nc2ccc(Cc3ccncc3)cc2)cc1[N+](=O)[O-]`, the Potency was inconclusive [inhibitor, full curve, poor fit]. With `COc1ccc(Cl)c2sc(N3CCN(C(C)=O)CC3)nc12` the Potency was inconclusive [inhibitor, single point]. In the case of `CCC(C)(C)NC(=O)c1cc(S(=O)(=O)N2CCc3ccccc32)cn1C`, the Potency is reported as inconclusive [inhibitor, single point]. In the case of `Cc1ccc(OCCCn2ccnc2)cc1C`, the Potency is reported as “inactive”. With `O=C(c1ccccc1NS(=O)(=O)c1ccccc1[N+](=O)[O-])N1CCCC1` the Potency was “inactive”. For `CCN(CC)C(=O)CSc1ncccc1-c1nc2ccccc2[nH]1`, the Potency was inconclusive [inhibitor, single point]. With `O=C(NCc1ccccc1)c1noc2c1CCCC2` the Potency was “inactive”. With `CCOc1ccc2nc(NC(=O)CSc3ccccc3)sc2c1` the Potency was inconclusive [inhibitor, full curve, poor fit]. With `Cc1ccc(NC(=O)Nc2cccs2)nc1` the Potency was “inactive”. In the case of `CCN1CCN(/C=N/c2nc3c(s2)CCCC3)CC1`, the Potency is reported as inconclusive [inhibitor, single point]. For `COC(C[C@@H](O)C[C@@H](O)[C@@H](C)OCc1ccccc1)OC`, the Potency was “inactive”. In the case of `COc1ccc2sc(-c3ccccc3OC)c(-c3ccc(O)cc3)c2c1`, the Potency is reported as inconclusive [inhibitor, full curve]. For `CNC(=S)NNC(=O)CSCc1c(Cl)cccc1Cl`, the Potency was “inactive”. In the case of `COC(=O)c1ccc2c(=O)n(NC(=O)C(c3ccccc3)c3ccccc3)c(=S)[nH]c2c1`, the Potency is reported as “inactive”. For `CCC(=O)N1CCN(c2ccc(NC(=O)COc3ccc(C)cc3C)cc2)CC1`, the Potency was inconclusive [inhibitor, single point]. For `O=C(/C=C/c1ccc([N+](=O)[O-])cc1)NCc1ccccn1`, the Potency was “inactive”. In the case of `Cc1cc([N+](=O)[O-])ccc1NC(=O)Nc1ccc(F)cc1F`, the Potency is reported as active: 3.55 µM. With `CCOC(=O)CC(SP1(=S)OCC2(CCCCC2)CO1)C(=O)OCC` (configuration not stated) the Potency was “inactive”. With `CCOC(=O)c1nc2sc3c(c2c(=O)n1C(C)C(=O)OCC)CCCC3` (configuration not stated) the Potency was inconclusive [inhibitor, partial curve]. For `Cc1cc2c(cc1S(=O)(=O)N1CCc3ccccc31)NC(=O)CO2`, the Potency was inconclusive [inhibitor, single point]. In the case of `CC(C)Cn1c(N)c(C(=O)COC(=O)c2ccc(Cl)cc2)c(=O)n(C)c1=O`, the Potency is reported as inconclusive [inhibitor, partial curve]. For `COc1ccc2c(c1)C(=O)CC(c1ccccc1F)O2` (configuration not stated), the Potency was inconclusive [inhibitor, partial curve]. For `CCOc1ccccc1C(=O)Nc1cc2c(cc1N1CCCC1)n(CC)c(=O)n2CC`, the Potency was inconclusive [inhibitor, partial curve, poor fit]. In the case of `CC(=O)Nc1cccc(NCC(=O)Nc2cc(S(=O)(=O)N3CCCCC3)ccc2Cl)c1`, the Potency is reported as inconclusive [inhibitor, partial curve]. In the case of `O=[N+]([O-])c1ccc(COc2cccc(CN3CCCCC3)c2)cc1`, the Potency is reported as inconclusive [inhibitor, partial curve]. For `Cc1ccc(-c2nc3ccccc3[nH]2)cc1NC(=S)NC(=O)c1ccccc1Br`, the Potency was inconclusive [inhibitor, single point]. In the case of `CC1(c2ccc3c(c2)OCCCO3)NC(=O)N(CC(=O)NCCc2ccccc2)C1=O` (configuration not stated), the Potency is reported as inconclusive [inhibitor, single point]. In the case of `CCOc1ccccc1NC(=O)CSc1n[nH]c(=O)n1-c1ccccc1`, the Potency is reported as inconclusive [inhibitor, single point]. In the case of `Cn1cncc1C#Cc1c(C=O)n(C)c2ccccc12`, the Potency is reported as inconclusive [inhibitor, single point]. With `CCOC(=O)c1cc2c(ccn2C)n1CC(=O)N1CCC(C)CC1` the Potency was inconclusive [inhibitor, partial curve, poor fit]. With `CCCCn1nc(C(=O)N[C@@H](CCSC)c2nc3ccccc3[nH]2)c2ccccc2c1=O` the Potency was inconclusive [inhibitor, single point]. In the case of `Cc1ccccc1C(=O)Nc1cc(-c2cc(C(C)(C)C)oc2C)nn1C`, the Potency is reported as inconclusive [inhibitor, partial curve]. For `CCc1c(C)sc(NC(=S)N2CCN(S(C)(=O)=O)CC2)c1C(=O)OC`, the Potency was “inactive”. In the case of `c1ccc2c(-c3[nH]ncc3CNCCCn3ncc4ccccc43)cccc2c1`, the Potency is reported as active: 10 µM. For `N#C/C(=C\c1ccccc1O)C(=O)Nc1ccccn1`, the Potency was “inactive”.
